# Experimental data as given in PubChem BioAssay AID652106 (National Center for Advancing Translational Sciences (NCATS), 2013).
# About 500 (0.14%) of roughly 370,000 compounds were called active. The shares of active, inactive and inconclusive entries below differ from those in the screen. Calls follow the shape of the dose curve; as a rule, active = well fitted activation curve with a large enough effect; inconclusive = small, poorly fitted or top-dose-only effect; inactive = no such curve, though single readings can be large or run the other way. Potencies of inconclusive entries are left out as doubtful fits.
# Experiment: qHTS of alpha-syn Inhibitors; also: nearly all actives have a fitted effect of over 65% in size
# Settings: Yeast expressing alpha-synuclein, BacTiter-Glo, 24 h; Potency: growth rescue unless noted; series mostly up to 46.1 µM
# Outline: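 Galactose-induced alpha-syn yeast (OD600=0.02, raffinose-pregrown) + pinned cpd, 24 hr, 30 deg C; growth by BacTiter-Glo luminescence. Growth restoration scores as activation.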
# Potency is read from the fitted curve at half-maximal effect; tags tell the direction and shape of the fitted curve.
row,SMILES,Potency
1,O=c1nc2c(-c3cccc(Br)c3)n[nH]n2c2ccccc12,inactive
2,COc1cccc(-c2nc(C(N)=O)c3c(n2)n(-c2ccc4c(c2)OCO4)c(=O)n3C)c1OC,inactive
3,CSc1ccccc1NC(=O)CN(C)Cc1c(O)ccc2ccccc12,"inconclusive [activator, single point]"
4,COc1ccc2nc(SCC(=O)Nc3ccc(S(=O)(=O)N4CCCC4)cc3)c(C#N)cc2c1,"inconclusive [activator, single point]"
5,S=c1[nH]nc(C2CCCCC2)n1/N=C/C=C/c1ccccc1,"inconclusive [activator, single point]"
6,COc1ccc(CN(C)C[C@H]2OCCCC[C@@H](C)Oc3ccc(NC(=O)c4ccccc4)cc3C(=O)N([C@H](C)CO)C[C@@H]2C)cc1,"inconclusive [activator, single point]"
7,O=C(CSc1nnc(NC(=O)C2CCC2)s1)Nc1ccccc1F,inactive
8,Cc1cccc(/C=N/NC(=O)c2ccccc2OCc2cccc(Br)c2)n1,"inconclusive [activator, single point]"
9,OC(c1ccc(F)cc1)c1nc(-c2cnc3ccccc3c2)cs1 (stereo unspecified),"inconclusive [activator, partial curve]"
10,CCCCC/C=C/C1=CC(=O)C[C@H](c2ccc(OC)c(OC)c2)C1,"inconclusive [activator, single point]"
11,O=C(Nc1c(-c2ccc(Cl)cc2)[nH][nH]c1=O)c1ccccc1Cl,inactive
12,COc1ccc(S(=O)(=O)NCCSCc2cccc(C)c2)cc1Br,"inconclusive [activator, partial curve]"
13,O=C(N/N=C/c1ccccn1)c1cc(-c2ccccc2)nc2ccccc12,"inconclusive [activator, single point]"
14,COc1ccc([C@H]2C[C@H](n3cc(COC(=O)c4ccccc4)nn3)[C@@H](O)CN2Cc2cccs2)cc1,"inconclusive [activator, single point]"
15,O=c1[nH]c(-c2ccccn2)nc2sc(-c3ccccc3)cc12,"inconclusive [activator, single point]"
16,CN(C)c1ccc(NC(=O)CN2CCC(C(=O)c3ccc(F)cc3)CC2)cc1,"inconclusive [activator, single point]"
17,CN=C(Nc1cccc(Cl)c1)SC1CC(=O)N(c2ccc(OC)cc2)C1=O (stereo unspecified),"inconclusive [activator, single point]"
18,Cc1ccccc1C(=O)OCC(=O)Nc1cccc(S(=O)(=O)N2CCCCC2)c1,"inconclusive [activator, single point]"
19,O=C1CSC(=S)N1c1cccc(O)c1,"inconclusive [activator, single point]"
20,CC(C)(C)NC(=S)Nc1ccc(Br)cc1,inactive
21,c1ccc(NC2=NCCN2CCCC2CCCCC2)cc1,active: 15.8 µM
22,CC(=O)NC(c1ccc(F)c(F)c1)c1nc(-c2cccc(C(F)(F)F)c2)cs1 (stereo unspecified),"inconclusive [activator, single point]"
23,CC1(Cc2ccccc2OC(F)(F)F)C(=O)Nc2c(Cl)ccc(Cl)c21 (stereo unspecified),"inconclusive [activator, single point]"
24,N=c1c2c(-c3ccccc3)c(-c3ccccc3)n(Cc3ccccc3)c2ncn1CCCn1ccnc1,"inconclusive [activator, single point]"

row,SMILES,Potency
1,COc1cccc(N2CCN(C(=O)c3cc(-c4ccc(F)cc4)[nH]c3C)CC2)c1,"inconclusive [activator, single point]"
2,O=C(Cc1cn(Cc2cccc(Cl)c2)c2ccccc12)N1CCCCCC1,"inconclusive [activator, single point]"
3,COc1ccc(F)cc1-c1cc(NC(C)=O)c2ncc(-c3cccc(C(F)(F)F)c3)n2c1,"inconclusive [activator, single point]"
4,Cc1oc(-c2ccccc2)nc1C(=O)OCC(=O)NCc1ccc(F)cc1,"inconclusive [activator, single point]"
5,Cc1nc2ccc(NC(=O)Cc3ccc(Br)cc3)cc2s1,inactive
6,C/C(=C\c1ccccc1)CN1CCN(c2ccccc2F)CC1,"inconclusive [activator, single point]"
7,Cc1nc2c(C)c(C)c(C)c(C)c2nc1C,inactive
8,CN(O)C(=S)c1ccccc1,active: 3.55 µM
9,CC1CCN(C(=O)c2ccc(CS(=O)(=O)Cc3ccccc3)cc2)CC1,inactive
10,CCOc1ccc(S(=O)(=O)N2CCCCC2)cc1NC(=O)C1CCCC1,"inconclusive [activator, single point]"
11,CC(=O)Nc1ccc(/C=C/c2nc3ccccc3s2)cc1,"inconclusive [activator, full curve]"
12,COc1ccc(N(CC(=O)NC2CCCCC2)C(=O)CCCC(=O)Nc2ccccn2)cc1,inactive
13,Cn1c2ccccc2c2cc(C(=O)N3CCOCC3)sc21,inactive
14,CN1CC(c2ccccn2)C2(SC(=S)N(Cc3ccccc3)C2=O)C12C(=O)Nc1ccccc12 (stereo unspecified),inactive
15,CC(C)CCNC(=O)CSc1nnc(-c2ccc(S(=O)(=O)N3CCCC3)cc2)n1C,"inconclusive [activator, single point]"
16,CCCCC1CC2=C(C(=O)OC(C)(C)O2)C(c2ccc3ccccc3c2)O1 (stereo unspecified),"inconclusive [activator, single point]"
17,CCSc1nc2ccccc2c(=O)n1CCc1ccc(OC)c(OC)c1,"inconclusive [activator, single point]"
18,CCCCOc1ccc(N=Cc2cccs2)cc1,"inconclusive [activator, single point]"
19,CN(C)c1ccc(N=Nc2ccc(/C=C/c3ccnc4ccccc34)cc2)cc1,inactive
20,O=C(COc1ccc(Cl)cc1)NNC(=O)c1ccccn1,"inconclusive [activator, single point]"
21,CCOC(=O)N1CCC2(CC1)CC(=O)c1c(ccc3oc(C(=O)O)c(C)c13)O2,"inconclusive [activator, single point]"
22,O=C(O)c1ccc(Oc2nc3ccccc3s2)cc1,"inconclusive [activator, single point]"
23,Cc1cccc(C2=NN(c3ccc(Br)cc3)[C@@H](C(=O)N3CCOC3=O)[C@@H]2c2ccc(F)cc2)c1,"inconclusive [activator, partial curve]"
24,Cc1nc(NCCc2ccccc2)sc1C(=O)N(C)C,"inconclusive [activator, single point]"

row,SMILES,Potency
1,O=C(CC1SC(N2CCCCC2)=NC1=O)Nc1cccc(C(=O)O)c1 (stereo unspecified),"inconclusive [activator, single point]"
2,Cc1cc2c(SCC(=O)NC3CCCCC3)ncnc2s1,inactive
3,O=C(N/N=C/c1cc2c3c(c1O)CCCN3CCC2)c1ccccc1O,active: 22.4 µM
4,c1ccc(-c2csc3nnc(SCc4ccc5c(c4)OCO5)n23)cc1,"inconclusive [activator, single point]"
5,Clc1ccc(C2=NOC(c3nnc(-c4ccccc4)o3)C2)cc1 (stereo unspecified),"inconclusive [activator, single point]"
6,N#C/C(=C\c1ccccc1)C(=O)Nc1cccnc1,"inconclusive [activator, single point]"
7,CCC(=O)NNC(=S)NC(=O)c1ccc(C)cc1,"inconclusive [activator, single point]"
8,O=C(Nc1ccc(F)cc1F)Nc1csc2ccccc12,inactive
9,Nn1c(Cc2cccc3ccccc23)nnc1SCCOc1ccc(Br)cc1,"inconclusive [activator, single point]"
10,C/C(=C\C(=S)Nc1ccccc1)Nc1ccccc1,inactive
11,COc1ccc(C(CNC(=O)CSc2ccc(Br)cc2)N2CCOCC2)cc1 (stereo unspecified),inactive
12,Cc1cc(C)nc(SCc2ccc(C(=O)N/N=C/c3cccc(O)c3O)cc2)n1,"inconclusive [activator, single point]"
13,Cc1ccc(NC(=O)c2cc(C)n(-c3cccc(C)c3)c2C)cc1,inactive
14,CSC1=C(C#N)C(c2cccc(Br)c2)CC(=O)N1 (stereo unspecified),inactive
15,NC(=O)c1sc2nc3c(c(-c4ccc(Cl)cc4)c2c1N)CCCC3,"inconclusive [activator, single point]"
16,COc1ccc(C=CC(=O)c2ccc(OC)c(OC)c2)cc1O,"inconclusive [activator, single point]"
17,Cc1ccc2ccccc2c1COC(=O)c1nonc1N,"inconclusive [activator, partial curve]"
18,COc1cccc(C(=O)NCCNc2nc3cc(C)cc(C)c3cc2C#N)c1,inactive
19,O=C(C[N+]12CN3CN(CN(C3)C1)C2)c1ccc(O)c(O)c1,"inconclusive [activator, single point]"
20,COc1cccc2cc(-c3nc4ccccc4o3)c(=O)oc12,active: 3.16 µM
21,CC(=O)c1cccc(NC(=O)C2(C)Cc3c(-c4cccc(C(F)(F)F)c4)ccnc3O2)c1 (stereo unspecified),"inconclusive [activator, single point]"
22,COc1ccc(CCC(=O)OCC(=O)Nc2ccccc2OC(F)F)cc1OC,"inconclusive [activator, single point]"
23,N#Cc1ccc(C2=CC(=O)C[C@H](c3ccc(Cl)cc3)C2)cc1,"inconclusive [activator, partial curve]"
